Values marked as one replicate rest on one cluster of the flow cell; about a third of the high ones do not repeat.
What follows are sequences tested on ATP (assay: switch fluorescence ratio, 500 uM ATP over buffer (Cy3 cluster intensity, sum of 5 cycles each) (fold (ratio)); higher = stronger signal-on switching upon ATP binding; sequences stand for … in TCGTCGGCAGCGTCAGATGTGTATAAGAGACAGTTTTTTTTTTTTTTTTTTTTTTTTT…TC). Conditions: aptamer strand: ATP DNA aptamer (quencher-CACCTGGGGGAGTATTGCGGAGGAAGG + anchor), 100 nM annealed; ATP concentration: 500 uM; one replicate.
In short: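 Clusters carrying Cy3-labelled switching strands on a modified Illumina MiSeq flow-cell were annealed to 100 nM quencher-labelled ATP aptamer and imaged in selection buffer. They were imaged again after 15 min with 500 uM ATP at 22 °C, over five buffer/ATP cycles with NaOH stripping and re-annealing in between. For each cluster, the fluorescence ratio is the summed Cy3 intensity of the target cycles divided by that of the buffer cycles, averaged per switch-domain sequence. Clusters outside 100-1000 RFU were left out.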
For TCCAATCGAA, the switch fluorescence ratio was 1.04.
TCCAATCTAG showed a switch fluorescence ratio of 0.992.
Work on TCCACAAGGG yielded a switch fluorescence ratio of 1.17.
For TCCACCGGGT, the switch fluorescence ratio was 1.65.
In the case of TCCACGTAAA, the switch fluorescence ratio is reported as 1.68.
In the case of TCCACGTCCT, the switch fluorescence ratio is reported as 1.01.
Work on TCCACTGTTA yielded a switch fluorescence ratio of 1.09.
With TCCAGCGACT the switch fluorescence ratio was 1.13.
TCCAGCGGG gave a switch fluorescence ratio of 1.02.
With TCCAGTTACG the switch fluorescence ratio was 0.983.
Sequence TCCAGTTG has a switch fluorescence ratio of 1.1.
Sequence TCCATACATG has a switch fluorescence ratio of 1.
Sequence TCCATCACCC has a switch fluorescence ratio of 1.05.
Work on TCCATGATGA yielded a switch fluorescence ratio of 1.01.
In the case of TCCATGCATT, the switch fluorescence ratio is reported as 1.13.
Sequence TCCATTAACG has a switch fluorescence ratio of 1.02.
TCCATTAAGG showed a switch fluorescence ratio of 0.989.
In the case of TCCATTCCT, the switch fluorescence ratio is reported as 1.16.
TCCCAATTTG showed a switch fluorescence ratio of 0.992.
TCCCACGAGA gave a switch fluorescence ratio of 0.997.
In the case of TCCCATTACG, the switch fluorescence ratio is reported as 1.28.
TCCCCATTCT showed a switch fluorescence ratio of 1.02.
With TCCCCCAAAA the switch fluorescence ratio was 1.04.
TCCCCCCGGG showed a switch fluorescence ratio of 2.38.
TCCCCGACTT showed a switch fluorescence ratio of 1.05.
TCCCCGGTA gave a switch fluorescence ratio of 1.49.
Work on TCCCCGTGC yielded a switch fluorescence ratio of 1.28.
TCCCCTTTGT was tested, and the switch fluorescence ratio was 1.05.
Sequence TCCCGCCCGG has a switch fluorescence ratio of 1.02.
For TCCCGGGCCT, the switch fluorescence ratio was 1.01.
With TCCCTAGTGA the switch fluorescence ratio was 1.14.
Work on TCCCTCATTA yielded a switch fluorescence ratio of 1.02.
TCCCTGGGGT gave a switch fluorescence ratio of 1.15.
TCCCTGGTTC gave a switch fluorescence ratio of 1.01.
In the case of TCCCTTAAAG, the switch fluorescence ratio is reported as 0.991.
Work on TCCGAAAAAC yielded a switch fluorescence ratio of 2.14.
In the case of TCCGAAAGTA, the switch fluorescence ratio is reported as 1.23.
In the case of TCCGAAGTCG, the switch fluorescence ratio is reported as 1.46.
For TCCGACTTGC, the switch fluorescence ratio was 1.84.
TCCGAGACG gave a switch fluorescence ratio of 1.33.
In the case of TCCGAGCCGC, the switch fluorescence ratio is reported as 1.52.
For TCCGAGTCC, the switch fluorescence ratio was 1.29.
In the case of TCCGAGTGTA, the switch fluorescence ratio is reported as 1.01.
TCCGAGTTAA was tested, and the switch fluorescence ratio was 1.52.
In the case of TCCGCTTCGT, the switch fluorescence ratio is reported as 1.24.
TCCGGACTTT gave a switch fluorescence ratio of 0.995.
TCCGGATGTC showed a switch fluorescence ratio of 1.12.
For TCCGGCACGG, the switch fluorescence ratio was 1.
TCCGGCGTAG showed a switch fluorescence ratio of 1.09.
TCCGGGAGGT showed a switch fluorescence ratio of 0.99.
TCCGGGGAGG was tested, and the switch fluorescence ratio was 1.02.
With TCCGGTG the switch fluorescence ratio was 1.86.
For TCCGTATGG, the switch fluorescence ratio was 1.02.
TCCGTGAAGT gave a switch fluorescence ratio of 1.03.
Sequence TCCGTGTGCC has a switch fluorescence ratio of 1.3.
Sequence TCCGTGTGCT has a switch fluorescence ratio of 1.05.
TCCGTGTTAC gave a switch fluorescence ratio of 4.66.
For TCCGTTAGTG, the switch fluorescence ratio was 1.01.
TCCGTTGAGT was tested, and the switch fluorescence ratio was 1.02.
In the case of TCCGTTTGCA, the switch fluorescence ratio is reported as 1.42.
Work on TCCTAAAGCT yielded a switch fluorescence ratio of 1.26.
Sequence TCCTAACAGT has a switch fluorescence ratio of 1.02.
For TCCTAATCTA, the switch fluorescence ratio was 0.959.
Work on TCCTAGGGGC yielded a switch fluorescence ratio of 1.1.
TCCTATCCGG showed a switch fluorescence ratio of 1.05.
TCCTATGTTA gave a switch fluorescence ratio of 1.05.
TCCTCAATTT showed a switch fluorescence ratio of 1.17.
For TCCTCCTGAG, the switch fluorescence ratio was 1.9.
TCCTCGAAAA showed a switch fluorescence ratio of 1.44.
TCCTCGCCGG gave a switch fluorescence ratio of 1.11.
For TCCTCGCCTT, the switch fluorescence ratio was 1.79.
For TCCTCGGTTC, the switch fluorescence ratio was 1.9.
TCCTCTACGC was tested, and the switch fluorescence ratio was 2.72.
Work on TCCTCTTTCT yielded a switch fluorescence ratio of 1.04.
TCCTGATCCT showed a switch fluorescence ratio of 1.05.
Sequence TCCTGCTTGT has a switch fluorescence ratio of 0.984.
With TCCTGGAGAA the switch fluorescence ratio was 1.06.
TCCTGGTGAC gave a switch fluorescence ratio of 1.31.
In the case of TCCTGTAGTA, the switch fluorescence ratio is reported as 1.03.
TCCTGTATTT showed a switch fluorescence ratio of 0.967.
TCCTGTTCGA was tested, and the switch fluorescence ratio was 0.995.
With TCCTTATCAT the switch fluorescence ratio was 1.02.
TCCTTATCTA showed a switch fluorescence ratio of 0.999.
In the case of TCCTTGAATT, the switch fluorescence ratio is reported as 1.5.
TCCTTTACAT showed a switch fluorescence ratio of 1.02.

From the supplement of paper PMC10126150
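Further: ATP exposure 15 min at 22 °C before imaging.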
